Experimental data from paper PMC4336329 (PLoS ONE, 2015).
The campaign covered roughly 310,000 compounds. About 2,200 (0.71%) showed an effect of 50% or more. Effects have a minus sign here. The list shows a part of the results.

Each compound was assayed against human ether-à-go-go-related gene (hERG) potassium channel (human, UniProt Q12809) (assay: primary screen, population patch clamp on CHO cells stably expressing hERG).
Chain of human ether-à-go-go-related gene (hERG) potassium channel (Q12809 whole entry, looked up): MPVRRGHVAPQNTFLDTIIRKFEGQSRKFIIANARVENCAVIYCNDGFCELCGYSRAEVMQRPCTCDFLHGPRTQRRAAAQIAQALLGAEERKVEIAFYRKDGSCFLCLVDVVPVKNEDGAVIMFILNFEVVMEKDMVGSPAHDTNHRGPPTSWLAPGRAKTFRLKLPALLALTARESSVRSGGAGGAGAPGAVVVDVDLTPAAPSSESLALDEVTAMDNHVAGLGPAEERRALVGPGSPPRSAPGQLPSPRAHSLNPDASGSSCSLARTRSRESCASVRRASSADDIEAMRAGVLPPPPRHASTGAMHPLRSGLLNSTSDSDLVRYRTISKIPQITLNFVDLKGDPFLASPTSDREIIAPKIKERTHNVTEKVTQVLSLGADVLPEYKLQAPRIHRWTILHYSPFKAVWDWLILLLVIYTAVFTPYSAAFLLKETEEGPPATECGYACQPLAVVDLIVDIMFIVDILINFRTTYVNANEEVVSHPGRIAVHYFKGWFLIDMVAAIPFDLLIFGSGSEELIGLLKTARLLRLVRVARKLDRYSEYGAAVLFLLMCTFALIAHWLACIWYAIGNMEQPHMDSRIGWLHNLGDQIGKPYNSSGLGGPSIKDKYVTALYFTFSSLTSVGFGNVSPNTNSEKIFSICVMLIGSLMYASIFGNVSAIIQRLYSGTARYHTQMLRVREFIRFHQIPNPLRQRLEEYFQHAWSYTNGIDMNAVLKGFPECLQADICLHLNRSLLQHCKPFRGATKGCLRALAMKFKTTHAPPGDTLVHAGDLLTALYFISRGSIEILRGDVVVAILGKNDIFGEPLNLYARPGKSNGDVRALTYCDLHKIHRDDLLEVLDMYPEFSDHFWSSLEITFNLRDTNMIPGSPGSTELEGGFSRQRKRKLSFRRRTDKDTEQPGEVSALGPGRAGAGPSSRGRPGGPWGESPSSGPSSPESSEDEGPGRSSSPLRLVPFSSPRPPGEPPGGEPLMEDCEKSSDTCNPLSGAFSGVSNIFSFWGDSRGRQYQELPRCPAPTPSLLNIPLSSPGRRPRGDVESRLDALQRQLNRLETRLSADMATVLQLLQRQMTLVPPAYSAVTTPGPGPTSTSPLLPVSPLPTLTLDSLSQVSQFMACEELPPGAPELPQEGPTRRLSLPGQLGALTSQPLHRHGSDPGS

| Compound | hERG current change (%, negative = inhibition) at 1uM [%] |
| --- | --- |
| COc1ccc(C(=O)NCCc2ccccn2)cc1S(=O)(=O)Nc1ccc(Br)cc1 | -5.26 |
| CCN1C(=O)[C@H]2[C@H]3[C@H](O)[C@H](O)C/C(=N\O[C@H](C)c4cn([C@H](CO)Cc5ccccc5)nn4)[C@@H]3CC[C@H]2C1=O | 8.69 |
| CCOc1ccc(NC(=S)N2CCN(C/C=C/c3ccccc3)CC2)cc1 | 0.394 |
| COc1cc(SC)ccc1C(=O)N1CCc2ccccc21 | 13.9 |
| Cc1nc2c3ccccc3nc(NNC(=O)CCC(=O)NCCC(C)C)n2n1 | 9.46 |
| O=c1[nH]c(/C=C/c2ccccc2Cl)c([N+](=O)[O-])c(=O)[nH]1 | 10.1 |
| Cc1ccc(CC(=O)Nc2cccc(C#N)c2)cc1 | 16 |
| O=C(NC(=S)Nc1ccc(CN2CCOCC2)cc1)c1cc2ccccc2o1 | 14.7 |
| CCOc1cc(/C=C2\N=C(SC(C)C(N)=O)N(c3ccc(OC(F)F)cc3)C2=O)ccc1O (stereo not drawn) | 11.9 |
| COc1ccc(C(=O)N2CCC(C(N)=O)CC2)cc1S(=O)(=O)N1CCCC1 | 12.1 |
| COc1ccc(CCNC(=O)C2CC(=O)N(C3CCCCC3)C2)cc1OC (stereo not drawn) | 21.5 |
| COc1ccc(CNC(=O)COC(=O)c2n[nH]c3ccccc23)cc1OC | -16.1 |
| Cc1nc2cc(NC(=O)CS(=O)(=O)c3ccccc3)ccc2s1 | 1.45 |
| CCCCN(C)C(=O)C(Cc1ccccc1)NS(=O)(=O)c1ccc2c(c1)c(=O)n(C)c(=O)n2C (stereo not drawn) | -0.619 |
| CCN(CC)C(=O)c1[nH]cnc1C(=O)N[C@@H](Cc1ccccc1)C(=O)OCc1ccccc1 | 13 |
| CCNc1nc(NC(C)CC)nc(Oc2ccc(=O)[nH]n2)n1 (stereo not drawn) | 3.97 |
| COc1ccccc1CCNC1CCC(C(C)(C)C)CC1 (stereo not drawn) | -4 |
| Cc1cc(C)c2cc(CNC3CCCC3)c(Cl)nc2c1 | 7 |
| CC1(C)CC(O)CC(C)(C)N1CC(O)COCCOc1ccc(Br)cc1 (stereo not drawn) | -3.04 |
| COc1ccc(C2=NO[C@@H]3C(=O)N(Cc4ccccc4)C(=O)[C@H]23)cc1OC | 3.91 |
| C/C(=N\Nc1ccc(F)cc1F)c1cccs1 | 15.3 |

| Compound | hERG current change (%, negative = inhibition) at 1uM [%] |
| --- | --- |
| [O-][n+]1c2ccccc2c2n1CCCN=C2c1ccc(Cl)cc1 | -5.62 |
| Cc1ccc(S(=O)(=O)N2CCN(C(=O)C(C)Cn3nc(C)c(C)c3C)CC2)cc1 (stereo not drawn) | 5.67 |
| CC(C)(C)N(Cc1cc2ccccc2[nH]c1=O)C(=O)c1ccco1 | 10.4 |
| Cl.O=C(O)Cc1cnc[nH]1 | 44.5 |
| CN1CCN(CCC(=O)Nc2ccc(C3CCCC3)cc2)CC1.Cl | -12.4 |
| O=C(COc1ccccc1)N=C1SC2CS(=O)(=O)CC2N1c1cccc(F)c1 (stereo not drawn) | 13.9 |
| Cc1ccc(S(=O)(=O)Cc2ccc(C(=O)N3CCN(c4ccccn4)CC3)o2)cc1 | 11.6 |
| COC(=O)C1=CN(Cc2ccccc2)C=C(C(=O)OC)C1c1ccc(O)c(OC)c1 | 17.4 |
| COC(=O)c1cc(S(=O)(=O)N(C)C2CCCCC2)cn1C | 10.5 |
| O=C(CC(C(=O)O)C1CCCO1)Nc1cccc(C(F)(F)F)c1 (stereo not drawn) | 13.3 |
| CCn1c(SCC(=O)NC2=NCCS2)nnc1C(C)NC(=O)c1ccccc1Br (stereo not drawn) | 13.2 |
| COc1ccc(C(=O)NCC2CCCO2)cc1S(=O)(=O)N1CCCc2ccccc21 (stereo not drawn) | 5.55 |
| CCOCCCNC(=S)Nc1ccc2nc(N3CCCC3)cc(C)c2c1 | -74.8 |
| O=C(CSc1nc2scc(-c3ccco3)c2c(=O)n1-c1ccccc1)NCC1CCCO1 (stereo not drawn) | -4.9 |
| Cc1ccc(C)c(OC(=O)C2CSC3(C)CCC(=O)N23)c1C (stereo not drawn) | -0.975 |
| COc1cc(NC(=O)CCc2nnc3ccc(N4CCOCC4)nn23)cc(OC)c1OC | 12.2 |
| O=C(/C=C/c1cccc([N+](=O)[O-])c1)NC(=S)Nc1cccc(NC(=O)c2ccccc2Cl)c1 | 6.61 |
| CC(Nc1nc(-c2ccc3c(c2)NC(=O)CO3)cs1)c1ccccc1 (stereo not drawn) | 10.8 |
| COCCc1nc2ccc(C(=O)N3CCCCC3COC)cc2o1 (stereo not drawn) | -26.2 |
| COc1ccc(N2CCN(C(=O)c3ccccc3)CC2)c([N+](=O)[O-])c1 | -33.8 |
| O=C(COc1ccc2ccc(=O)oc2c1)Nc1cccc(S(=O)(=O)N2CCCCC2)c1 | 1.49 |
